Test results as given in PMC4336329 (PLoS ONE, 2015).
Screen size: about 310,000 compounds; about 14,000 (4.5%) showed an effect of 50% or more. Effects have a minus sign here. This is one part of the list.

biological target: human ether-à-go-go-related gene (hERG) potassium channel (human, UniProt Q12809); test: primary screen, population patch clamp on CHO cells stably expressing hERG
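Note: peak tail current of the secondary pulse compared with the same well before compound.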

human ether-à-go-go-related gene (hERG) potassium channel, sequence (Q12809 whole entry, looked up): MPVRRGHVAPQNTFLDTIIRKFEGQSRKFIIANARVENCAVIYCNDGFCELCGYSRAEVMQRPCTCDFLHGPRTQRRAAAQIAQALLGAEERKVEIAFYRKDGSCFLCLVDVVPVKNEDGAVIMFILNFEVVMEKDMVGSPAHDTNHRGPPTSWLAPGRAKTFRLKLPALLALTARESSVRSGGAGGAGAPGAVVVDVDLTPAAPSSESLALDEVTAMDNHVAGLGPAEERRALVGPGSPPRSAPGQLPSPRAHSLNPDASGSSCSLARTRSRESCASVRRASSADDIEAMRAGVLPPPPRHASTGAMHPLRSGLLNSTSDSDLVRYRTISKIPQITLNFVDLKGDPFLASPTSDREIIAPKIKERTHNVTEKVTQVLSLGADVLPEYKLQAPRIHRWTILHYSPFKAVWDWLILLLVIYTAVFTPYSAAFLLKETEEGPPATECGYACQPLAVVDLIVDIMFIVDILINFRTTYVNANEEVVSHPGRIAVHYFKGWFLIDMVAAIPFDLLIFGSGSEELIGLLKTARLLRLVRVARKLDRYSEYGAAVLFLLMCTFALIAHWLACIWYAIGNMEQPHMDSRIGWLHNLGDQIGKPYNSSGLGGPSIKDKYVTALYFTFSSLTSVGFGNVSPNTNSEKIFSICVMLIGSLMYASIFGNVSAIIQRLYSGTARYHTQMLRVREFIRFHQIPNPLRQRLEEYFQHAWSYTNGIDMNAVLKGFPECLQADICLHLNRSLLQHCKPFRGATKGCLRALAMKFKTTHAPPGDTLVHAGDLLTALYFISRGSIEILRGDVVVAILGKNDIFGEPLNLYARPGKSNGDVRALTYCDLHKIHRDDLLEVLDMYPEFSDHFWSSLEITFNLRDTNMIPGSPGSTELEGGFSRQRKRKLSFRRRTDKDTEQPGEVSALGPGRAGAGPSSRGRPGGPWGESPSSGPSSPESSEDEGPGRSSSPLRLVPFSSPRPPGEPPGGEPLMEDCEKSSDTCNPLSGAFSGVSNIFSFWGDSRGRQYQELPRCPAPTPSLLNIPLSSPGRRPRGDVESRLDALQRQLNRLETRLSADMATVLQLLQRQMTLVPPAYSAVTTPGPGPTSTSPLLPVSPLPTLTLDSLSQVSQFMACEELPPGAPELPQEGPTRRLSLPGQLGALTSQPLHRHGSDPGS

Compound | hERG current change (%, negative = inhibition) at 10uM [%]
CCNC(=O)CN(C1CCCCC1)S(=O)(=O)c1ccc(F)cc1 | -0.0524
COc1ccc(CCNc2oc(COc3ccccc3F)nc2C#N)cc1 | -13.4
c1cncc(-c2nc3ccccc3s2)c1 | 2.39
Cc1cc(C)c(S(=O)(=O)/N=C2\C=C(Nc3ccc(C(=O)O)cc3)C(=O)c3ccccc32)c(C)c1 | 3
CN(N)C(=S)NCc1ccccc1 | 6.05
CSCCC(NC(=O)c1ccccc1)C(=O)N1CCN(C(C)=O)CC1 (centres unmarked) | 13.5
COc1ccc(CCNCc2ccc(OCc3ccc(Cl)nc3)c(OC)c2)cc1OC.Cl | -63.3
COc1ccc2[nH]c3c(c2c1)CCN1C(=O)N([C@@H](C)C(=O)NCc2ccc(C)cc2)C(=O)[C@]31C | 9.26
Cc1csc(NC(=O)CSc2nnc(CCNC(=O)c3cccs3)n2C)n1 | 8.1
Cc1ccc(NC(=O)c2cccc3c2-c2ccccc2C3=O)cc1C | -9.58
Cc1cc(C)nc(NS(=O)(=O)c2ccc(NC(=O)c3cccc(N4C(=O)CCC4=O)c3)cc2)n1 | -1.75
CC(=O)Nc1cccc(NC(=O)CSc2nc(C)c(C)c(C)c2C#N)c1 | -3.48
O=C(CSc1nc2[nH]ncc2c(=O)[nH]1)Nc1cccc([N+](=O)[O-])c1 | -19.2
O=C(NC(Cc1ccccc1)C(=O)O)/C(=C\c1ccco1)NC(=O)c1ccccc1Br (centres unmarked) | 9.89
Cc1ccc(S(=O)(=O)N2CCOCC2)cc1C(=O)O | 11.5
CCN(CC)S(=O)(=O)c1ccc(OCC(=O)NCc2ccccc2)cc1 | -14.2
CSc1nsc(SC)c1NC(=O)OCCc1ccccn1 | -6.18
CCOC(=O)c1nn(-c2ccc3c(c2)CCN3C(C)=O)cc1O | -14.5
COC(=O)C1=C(CSc2nccn2C)NC(=O)NC1c1cc(C)ccc1C (centres unmarked) | 6.72
C=CCc1ccc(OCC(O)CN2CCN(Cc3ccc(Cl)cc3)CC2)c(OC)c1.Cl (centres unmarked) | -75.7
N#CC1=C(N)Oc2n[nH]c(-c3cccs3)c2C1c1ccccc1C(=O)O (centres unmarked) | 11
CCc1ccc(OCC(=O)NNC(=O)C2CCN(c3ncnc4sc(C)c(C)c34)CC2)cc1 | -45.3
Cc1ccc(C(C(=O)NCc2ccc(F)cc2)N(C(=O)c2csnn2)C2CC2)o1 (centres unmarked) | -56.7
